This note sets out measurements from publication PMC13083723 (Patterns, 2026).

The whole screen tested about 5,400 compounds, of which about 190 (3.5%) showed an effect of 50% or more. Some of the results follow. Positions of bridges follow the written chain, without caps; N, C: chain ends. Non-standard residues stand in square brackets, D forms with d. Residues, ends and D or L forms follow the SMILES beside them. *: point of attachment. X1 = CCC(C)C(N)C1=NC(C(=O)*)CS1; dOrn = NCCC[C@@H](N)C(=O)O

In the assay the test system is Vero-E6. The assay can be described thus: primary screen, phospholipidosis by LipidTOX staining; higher = more effect of the substance. Particulars: 10 µM. The method, boiled down:
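Drug-induced phospholipidosis detected with HCS LipidTOX Red reagent in Vero-E6 cells. Compounds tested at 10 μM, with amiodarone (10 μM) as positive control and DMSO (0.1 v/v %) as vehicle.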
For the compound `O=C(O)c1cccnc1Nc1cccc(C(F)(F)F)c1`, the result_ITMP is listed as -3.76%.
The result for `Cc1cn([C@H]2O[C@@H](CO)[C@H](O)[C@H]2F)c(=O)[nH]c1=O` reads 5.41%; that for `NC1(C(=O)N[C@@H](CCO)c2ccc(Cl)cc2)CCN(c2ncnc3[nH]ccc23)CC1`, 4.08%.
With `CC(CCc1ccccc1)NCC(O)c1ccc(O)c(C(N)=O)c1` (stereo not shown), the result_ITMP is reported as -2.33%.
Take `Nc1ncnc2c1nc(Br)n2[C@@H]1O[C@@H]2COP(=O)([O-])O[C@H]2[C@H]1O`: the result_ITMP is 15.8%.
With `CCOC(=O)[C@H](CCc1ccccc1)N[C@@H](C)C(=O)N1Cc2ccccc2C[C@H]1C(=O)O`, the result_ITMP is 6.02%.
`Cn1cc(-c2ccc3ncc(Cc4ccc5ncccc5c4)n3n2)cn1`: the result_ITMP came out at 3.96%.
The result for `CN1C(C)(C)CCCC1(C)C` reads -4.52%; that for `Cc1cc(NC(=O)Nc2ccc(N(C)C)cc2)c2cc(F)cc(F)c2n1`, 3.8%; that for `OC[C@H]1O[C@@H](n2cnc3c2NC=NC[C@H]3O)C[C@@H]1O`, -5.63%.
The result for `CN(C)/N=N/c1[nH]cnc1C(N)=O` reads 0.56%; that for `CN1C[C@@H](NS(=O)(=O)N(C)C)C[C@@H]2c3cccc4c3c(cn4C)C[C@H]21`, 0.99%; that for `C[N+](C)(C)CCCCCC[N+](C)(C)C`, -5.53%.
As to `O=c1ccc2ccc(OCCCCN3CCN(c4cccc5sccc45)CC3)cc2[nH]1`, the result_ITMP turned out to be 1.96%.
As to `CC(C)Cc1sc(N)nc1-c1ccc(P(=O)(O)O)o1`, the result_ITMP is recorded as -1.22%.
For the compound `c1cc(Cc2cnc[nH]2)ccn1`, the result_ITMP was -3.63%.
The result for `CCCCCCCCc1ccc(-c2ccc(C(=O)O)cc2)cc1` reads -2.19%; that for `CC(CCC(=O)O)[C@H]1CCC2C3C(=O)C[C@@H]4CC(=O)CC[C@]4(C)C3CC(=O)[C@@]21C` (stereo partly shown), 2.15%.
The result for `CC(C)(O)C(Cl)(Cl)Cl` reads -3.96%.
To `COCCOc1cnc2ccn([C@H](C)c3nnc4c(F)cc(-c5cnn(C)c5)cn34)c(=O)c2c1` belongs 0.05%; to `Cc1cc2c(cc1S(N)(=O)=O)S(=O)(=O)CCC2`, 1.83%.
Consider `Oc1cccc2cccnc12`, for which the result_ITMP is recorded as -3.64%.
As to `Nc1nc2c(ncn2[C@@H]2O[C@H](CO)[C@@H](O)[C@H]2O)c(=O)[nH]1`, the result_ITMP is -4.89%.
The result for `COC(=O)Nc1nc2cc(C(=O)c3ccccc3)ccc2[nH]1` reads 2.13%; that for `Nc1nc2c(c(=O)[nH]1)C[C@@H](CCc1ccc(C(=O)N[C@@H](CCC(=O)O)C(=O)O)cc1)CN2`, 3.51%.
The result for `CC1(C)S[C@@H]2[C@H](NC(=O)[C@H](NC(=O)N3CCNC3=O)c3ccccc3)C(=O)N2[C@H]1C(=O)O` reads -1.89%.
The result for `OCc1ccc(CO)o1` reads 0.61%.
For `N#C/C(=C\c1ccc(O)cc1)C(=O)O`, the result_ITMP is given as -1.1%.
To `CC(C)c1ccc2oc3nc(N)c(C(=O)O)cc3c(=O)c2c1` belongs -4.3%; to `CC(C)c1ccc(CC(=O)N2CCC[C@@H](c3cccc(OC(C)(C)C(=O)O)c3)C2)cc1`, -0.97%.
The result for `CCn1c2ccccc2c2cc(Nc3ccnc(NCCCN4CCOCC4)n3)ccc21` reads 57.6%; that for `COc1cccc([C@@H](C)NCCCc2ccccc2Cl)c1`, 70.1%; that for `COc1ccc(CCN)cc1OC`, -4.61%.
Regarding `CCCCCCc1ccc(O)cc1O.Nc1c2ccccc2nc2ccccc12`, the result_ITMP stood at 42.4%.
For the compound `Cl/C=C\C[N+]12CN3CN(CN(C3)C1)C2`, the result_ITMP is -3.36%.
With `O=C1[C@H](Cc2ccc(O)cc2)N2C(=O)CCN(C(=O)NCc3ccccc3)[C@H]2CN1Cc1cccc2ccccc12`, the result_ITMP is given as -10.9%.
The result for `O=C(NCC1(N2CCN(c3ccccc3)CC2)CCOCC1)c1cccnc1Sc1ccccc1` reads 6.86%.
To `CN[C@H](C(=O)N[C@H](C(=O)N(C)[C@H](/C=C(\C)C(=O)O)C(C)C)C(C)(C)C)C(C)(C)c1ccccc1` belongs 0.85%; to `CC(=O)Nc1ccccc1`, -3.98%; to `O=C(/C=C/c1ccc2ccccc2n1)c1ccncc1`, -10%.
`Cc1cc(C(N)=O)ccc1-n1c(CCC(=O)O)ccc1-c1ccc(-n2ccnc2)cc1`: the result_ITMP is listed as -0.5%.
To `CCCN1C[C@H](CSC)C[C@@H]2c3cccc4[nH]cc(c34)C[C@H]21` belongs 1.51%.
Regarding `CSc1ccc2c(c1)C(N1CCN(C)CC1)Cc1ccccc1S2` (stereo not shown), the result_ITMP is given as 79.9%.
To `COc1ccc([C@]2(O)CC[C@H](N3CC[C@@H](NC(=O)CNC(=O)c4cccc(C(F)(F)F)c4)C3)CC2)cn1` belongs -6.31%.
Take `C[C@H]1COc2c(C3(N)CC3)c(F)cc3c(=O)c(C(=O)O)cn1c23`: the result_ITMP is listed as -1.97%.
To `CC(C(=O)O)c1ccc2c(c1)Cc1cccnc1O2` (stereo not shown) belongs -4.04%; to `CCC(C)C(N)C1=NC(C(=O)N[C@@H](CC(C)C)C(=O)N[C@H](CCC(=O)[O-])C(=O)N[C@H](C(=O)N[C@H]2CCCCNC(=O)[C@H](CC(N)=O)NC(=O)[C@@H](CC(=O)[O-])NC(=O)[C@@H](Cc3cnc[nH]3)NC(=O)[C@@H](Cc3ccccc3)NC(=O)[C@@H]([C@H](C)CC)NC(=O)[C@@H](CCCN)NC2=O)[C@@H](C)CC)CS1` (stereo partly shown) (X1-L[dE]IK[dOrn][dI][dF][dH][dD]N; lactam 4-C), -3.81%; to `Cc1c(C)c2c(c(C)c1O)CCC(C)(COc1ccc(CC3SC(=O)NC3=O)cc1)O2` (stereo not shown), -3.62%.
Turning to `Cc1ccccc1-c1cc(N2CCN(C)CC2)ncc1N(C)C(=O)C(C)(C)c1cc(C(F)(F)F)cc(C(F)(F)F)c1`, the result_ITMP is recorded as -0.61%.
To `COC(c1ccccc1)(c1ccccc1)[C@H](Oc1nc(C)cc(C)n1)C(=O)O` belongs -4.63%.
The result for `O=C1NC(=S)NC(=O)C1C(=O)Nc1ccccc1` reads -8.79%; that for `CC(=O)Nc1ccc(Cc2ccc(NC(C)=O)cc2)cc1`, -4.6%.
As to `O=C(NO)c1ccc(O)c(O)c1`, the result_ITMP is listed as -2.75%.
To `CCOc1nc2cccc(C(=O)OC(C)OC(=O)OC3CCCCC3)c2n1Cc1ccc(-c2ccccc2-c2nnn[nH]2)cc1` (stereo not shown) belongs -3.73%; to `COC(=O)C1=C(C)NC(C)=C(C(=O)OCCN2CCN(C(c3ccccc3)c3ccccc3)CC2)C1c1cccc([N+](=O)[O-])c1` (stereo not shown), 11.6%.
The result for `COc1cccc(-c2cc(NCc3ccc4c(c3)OCO4)nc(N)n2)c1` reads 4.88%; that for `COc1cc(S(C)=O)ccc1-c1nc2ncccc2[nH]1` (stereo not shown), -8.57%.
On to `CCN(CC)CCCCNc1ncc2cc(-c3c(Cl)cccc3Cl)c(NC(=O)NC(C)(C)C)nc2n1`, for which the result_ITMP worked out at 69.2%.
Take `C[C@@H]([C@H](O)c1ccccc1)N(C)C`: the result_ITMP is reported as -15.3%.
The result for `COc1ccc([C@@H]2CC(=O)c3c(O)cc(O[C@@H]4O[C@H](CO[C@@H]5O[C@@H](C)[C@H](O)[C@@H](O)[C@H]5O)[C@@H](O)[C@H](O)[C@H]4O)cc3O2)cc1O` reads 0.24%; that for `CO[C@H](C(=O)[C@@H](O)[C@@H](C)O)[C@@H]1Cc2cc3cc(O[C@H]4C[C@@H](O[C@H]5C[C@@H](O)[C@H](O)[C@@H](C)O5)[C@@H](O)[C@@H](C)O4)c(C)c(O)c3c(O)c2C(=O)[C@H]1O[C@H]1C[C@@H](O[C@H]2C[C@@H](O[C@H]3C[C@](C)(O)[C@H](O)[C@@H](C)O3)[C@H](O)[C@@H](C)O2)[C@H](O)[C@@H](C)O1`, 29.4%.
To `O=[N+]([O-])c1cc([N+](=O)[O-])c(/C=C/c2ccc(Cl)c(Cl)c2)cc1/C=C/c1ccc(Cl)c(Cl)c1` belongs -7.51%.
The result for `O=c1cc(N2CCOCC2)oc2c(-c3cccc4c3sc3ccccc34)cccc12` reads 1.64%; that for `Nc1ncc2c(n1)CC(c1ccco1)CC2=O` (stereo not shown), 3.12%.
As for `Oc1ccc2c3c1O[C@H]1c4[nH]c5c(c4C[C@@]4(O)[C@@H](C2)N(CC2CC2)CC[C@]314)C[C@@]1(O)[C@H]2Cc3ccc(O)c4c3[C@@]1(CCN2CC1CC1)[C@H]5O4`, the result_ITMP was 2.52%.
Turning to `CN(C)CCCN1c2ccccc2Sc2ccccc21`, the result_ITMP was 37.7%.
The result for `Cc1cc(C(C)(C)C)c(O)c(C)c1CC1=NCCN1` reads -4.13%; that for `O=C(OCCO)c1ccccc1O`, 2.99%.
`CCC(=O)O[C@@H]1CC(=O)O[C@H](C)C/C=C/C=C/[C@H](OC(C)=O)[C@H](C)C[C@H](CC=O)[C@H](O[C@@H]2O[C@H](C)[C@@H](O[C@H]3C[C@@](C)(OC(C)=O)[C@@H](OC(=O)CC)[C@H](C)O3)[C@H](N(C)C)[C@H]2O)[C@H]1OC`: the result_ITMP came out at 7.16%.
To `NS(=O)(=O)c1cc(C(=O)O)cc(N2CCCC2)c1Oc1ccccc1` belongs -10.1%; to `CC(=O)O[C@]1(C(C)=O)CC[C@H]2[C@@H]3C[C@H](C)C4=CC(=O)C=C[C@]4(C)[C@@]3(F)[C@@H](O)C[C@@]21C`, -7.92%.
Regarding `CCCC(CCC)C(=O)NCC(N)=O`, the result_ITMP was -5.65%.
The result for `O=C(O)COc1ccc(OCCNC[C@H](O)COc2ccccc2)cc1` reads -6.38%; that for `CC(=O)NC1=NN(C(C)=O)C(C)(c2ccccc2)S1` (stereo not shown), 18.6%; that for `CC(=O)OC[C@H]1O[C@@](COC(C)=O)(O[C@H]2O[C@H](COC(C)=O)[C@@H](OC(C)=O)[C@H](OC(C)=O)[C@H]2OC(C)=O)[C@@H](OC(C)=O)[C@@H]1OC(C)=O`, 4.65%.
Take `Cc1ccc(-c2csc(NC(=O)c3ccccc3)n2)c(C)c1`: the result_ITMP is 2.34%.
To `Cc1onc(-c2ccccc2)c1-c1ccc(S(N)(=O)=O)cc1` belongs -5.1%.
As to `CCN(CC)C(=S)[S-]`, the result_ITMP is listed as -6.15%.
The result for `CC1=C(CC(=O)O)c2cc(F)ccc2/C1=C\c1ccc(S(C)=O)cc1` (stereo not shown) reads -2.21%.
The result for `O=C1c2cccnc2OC[C@@H]2CCCN12` reads -2.01%; that for `CCCc1cc(=O)[nH]c(=S)[nH]1`, -3.09%.
To `CCCCCCCC[N+](C)(C)Cc1ccccc1` belongs -1.9%.
